Data from patent USRE31181E, “Means and method for improving natural defenses against caries” (priority 1980, dated 1983).
At least one peptide structure holds a part that was inferred or is arguable (an end, a ring closure or a residue). Some compounds share one wording; it may come from a single statement. Where a SMILES comes first, the peptide text is derived from it.

Test system: oral bacteria
Assay: pH of glucose solution incubated with oral bacteria (salivary sediment) and test substance
Type: cell-based
Settings: salivary sediment 16.7% (v/v), glucose 2.8 mM, peptide 3.3 mM; for pH rising to (pH rise after the drop): measured through the fourth hour; for pH drop to (lowest pH reached): pH starts slightly above 7
Description: Experiments were performed in vitro using supernatant saliva. The saliva was obtained from random donors whose salivary secretions were paraffin block stimulated. The saliva donations were pooled before and after sediment removal.
Four sets of three 10×75 mm test tubes were provided with 0.2 ml of 8.4 mM (millimolar) of aqueous glucose solution. Set I was provided with 0.2 ml of pooled supernatant saliva. Set II was provided with 0.2 ml of 9.9 mM of the peptide glycine-glycine-arginine. Set III was provided with 0.2 ml of 9.9 mM arginine. Set IV was provided with 0.2 ml of distilled water. Sequentially 0.2 ml of a 50:50 aqueous suspension of oral bacteria was added to each test tube. The concentration of the peptide in the combined composition was 3.3 mM. The prepared test tubes were kept at 37° C. in a water bath. pH readings were taken at 0 time when the bacteria were added and at 15, 30, 45, 60, 90, 120, 180 and 240 minutes.
The tests were carried out under the same conditions as Sets I-IV. The salivary sediment was present in an amount of 16.7% (v/v), glucose 2.8 mM and the peptide 3.3 mM in the final composition.
Duplicate runs without peptide were run parallel to the others as a double check. […] Measurement continues through the fourth hour.

Row | SMILES | pH rising to (pH rise after the drop) | pH drop to (lowest pH reached)
1 | NCCCC[C@H](N)C(=O)N[C@@H](CO)C(=O)O [Lys--Ser, reference compound] | ~5.6 | about 5.3
2 | CC(C)C[C@H](NC(=O)[C@@H](N)CCCNC(=N)N)C(=O)O [Arg--Leu] (H-Arg-Leu-OH) | 7-8 | 5.5
3 | N=C(N)NCCC[C@H](N)C(=O)N[C@@H](CCCCN)C(=O)O [Arg--Lys] (H-Arg-Lys-OH) | 7.2-8 | 6-6.7
4 | NCC(=O)NCC(=O)N1CCC[C@H]1C(=O)O [Gly--Gly--Pro, reference compound] (H-Gly-Gly-Pro-OH) | no significant pH rise | 
5 | O=C(O)[C@@H]1CCCN1C(=O)[C@@H]1CCCN1C(=O)[C@@H]1CCCN1 [Pro--Pro--Pro, reference compound] (H-Pro-Pro-Pro-OH) | no significant pH rise | 
6 | N=C(N)NCCC[C@H](N)C(=O)N[C@@H](CO)C(=O)O [Arg--Ser] (H-Arg-Ser-OH) | about 7 | about 5.5
7 | NCC(=O)NCC(=O)NCC(=O)O [Gly--Gly--Gly, reference compound] (H-Gly-Gly-Gly-OH) | no significant pH rise | 
8 | N=C(N)NCCC[C@H](N)C(=O)NCC(=O)O [Arg--Gly] (H-Arg-Gly-OH) | 7-7.9 | about 5.5
9 | N=C(N)NCCC[C@H](NC(=O)[C@@H](N)Cc1ccccc1)C(=O)O [Phe--Arg] (H-Phe-Arg-OH) | 6.8-7.8 | about 5
10 | CSCC[C@H](N)C(=O)N1CCC[C@H]1C(=O)O [Meth--Pro, reference compound] (H-Met-Pro-OH) | no significant pH rise | 
11 | N=C(N)NCCC[C@H](NC(=O)[C@@H](N)CC(=O)O)C(=O)O [Asp-Arg] (H-Asp-Arg-OH) | ~6.8 | about 5.4
12 | N=C(N)NCCC[C@H](NC(=O)CN)C(=O)O [Gly--Arg] (H-Gly-Arg-OH) | 7.5 | about 5.2
13 | CSCC[C@H](NC(=O)[C@@H](N)Cc1c[nH]cn1)C(=O)O [His--Meth, reference compound] (H-His-Met-OH) | ~5.5 | about 5.4
